Measured values as given in article PMC6919601, “Identification of Plasmodium dipeptidyl aminopeptidase allosteric inhibitors by high throughput screening” (PLoS ONE, 2019).
Among all 110,000 compounds or so, about 230 (0.21%) showed an effect of 50% or more. This is one part of the list.

These compounds were tested against DPAP1 (Plasmodium falciparum, UniProt Q8IIJ9) (assay: primary screen, percent inhibition; read by cleavage of a fluorogenic dipeptide substrate; higher = more effect of the substance).
Parameters: species or system P. falciparum D10 trophozoite lysates; single well
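Further: 30 min substrate incubation versus DMSO and 10 µM JCP410 controls.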

DPAP1, sequence (Q8IIJ9 whole entry, looked up): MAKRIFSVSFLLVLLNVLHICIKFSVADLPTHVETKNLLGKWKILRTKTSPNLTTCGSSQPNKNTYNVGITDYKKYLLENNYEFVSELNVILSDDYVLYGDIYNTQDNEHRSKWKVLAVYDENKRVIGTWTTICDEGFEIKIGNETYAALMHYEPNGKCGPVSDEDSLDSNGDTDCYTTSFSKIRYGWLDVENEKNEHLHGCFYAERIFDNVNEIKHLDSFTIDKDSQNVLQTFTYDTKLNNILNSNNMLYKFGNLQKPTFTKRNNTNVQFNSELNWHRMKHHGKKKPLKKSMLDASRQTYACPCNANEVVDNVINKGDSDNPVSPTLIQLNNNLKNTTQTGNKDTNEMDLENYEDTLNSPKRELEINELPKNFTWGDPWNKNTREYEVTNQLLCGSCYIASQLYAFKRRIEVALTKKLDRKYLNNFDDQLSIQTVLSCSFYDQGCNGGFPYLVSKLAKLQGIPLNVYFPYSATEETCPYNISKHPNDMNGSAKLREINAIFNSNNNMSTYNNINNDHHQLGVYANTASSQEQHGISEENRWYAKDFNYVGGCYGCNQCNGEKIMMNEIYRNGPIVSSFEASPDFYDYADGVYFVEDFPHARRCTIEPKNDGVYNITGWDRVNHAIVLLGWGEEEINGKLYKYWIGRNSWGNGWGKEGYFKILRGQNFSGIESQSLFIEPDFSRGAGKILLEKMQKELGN

SMILES | % Inhibition @ 10 uM [%]
C=CCOc1ccccc1CN(CCN(C)C)Cc1ccccc1 | -5.49
CCC1CCc2c(sc(NC(C)=O)c2C#N)C1 (stereo not shown) | -5.48
C1=CCC(CN2CCN(c3ncccn3)CC2)CC1 (stereo not shown) | -5.65
O=C(CN1C(=O)c2ccccc2S1(=O)=O)Nc1ccc(Cl)c(C(F)(F)F)c1 | 6.24
Cc1cc(=O)oc2cc3c(cc12)OCCO3 | 2.59
COc1ccccc1-n1nnc(-c2nsc(NC(=O)c3cccc(F)c3)n2)c1C | 0.411
CCOCCCNC(=O)/C(C#N)=C/c1c(Oc2ccc(C)cc2)nc2c(C)cccn2c1=O | -5.1
COC(=O)C1=C(C)N(C)C(=O)NC1c1cc(F)ccc1F (stereo not shown) | -3.04
CCN(CC)c1ccc(Nc2nc(-c3c(C)nc4ccccn34)cs2)cc1 | 3.65
COc1ccc(C(=O)Cn2nnc3sc4c(c3c2=O)CCCC4)c(OC)c1 | -2.71
O=C(CCN1C(=O)C2CCCCC2C1=O)N1CCc2ccccc2C1 (stereo not shown) | 6.22
CCN1CCN(C(=O)c2ccc(-c3nc(COc4ccc(C)cc4)c(C)o3)cc2)CC1 | -4.78
N#CC1=C(N)Oc2c(c(O)nc3ccccc23)C1c1ccccc1Cl (stereo not shown) | 1.76
CCCN1C(=O)c2[nH]nc(-c3cc(C)ccc3O)c2C1c1ccc(OCC)c(OC)c1 (stereo not shown) | 0.558
Cc1nc2ccccc2c2oc(C(=O)N3CCC(C)CC3)cc12 | -5.25
Cc1cccc(N(CC(=O)Nc2ccc3c(c2)OCO3)S(=O)(=O)c2ccccc2)c1C | -3.69
CC1CCN(c2nc3c(c(=O)[nH]c(=O)n3C)n2Cc2ccccc2F)CC1 | 5.54
CC(C)c1ccc(CNc2ccc(O)cc2)cc1 | -4.76
NC(=O)c1ccc(-n2c(CCC(=O)O)ccc2-c2ccccc2)cc1 | 0.558
CN(C)CCCN1C(=O)CSC1c1ccc2c(c1)OCO2 (stereo not shown) | -3.52
COc1ccccc1CN1COc2ccc3c(-c4ccccc4)cc(=O)oc3c2C1 | 2.65
COc1cc(/C=C2/SC(NC(C)=O)=NC2=O)cc(Cl)c1OCc1ccc(C(=O)O)cc1 | 4.85
Cc1cccc(NC(=O)NCc2ccccn2)c1 | 1.61
CCOC(=O)N1CCN(Cc2nc3c(c(=O)[nH]c(=O)n3C)n2CC(C)C)CC1 | -2.92
Cc1cc(C(=O)NCCc2sccc2C)c2c(C)nn(-c3ccccc3)c2n1 | 2.12

SMILES | % Inhibition @ 10 uM [%]
Cc1cc2cc(CNC(=S)NC3CCCCC3)ccc2[nH]1 | 3.19
CC(CCN(C)CCN(C)C)c1ccccc1 (stereo not shown) | -2
CCCCCCc1ccc(-c2ncc(N)cn2)cc1 | 0.634
CCCn1c2ccccc2c2cnn(CC(=O)NCC3CCN(Cc4ccccc4F)CC3)c(=O)c21 | 5.05
CCC(=O)NS(=O)(=O)c1cnccc1Sc1ccc(Cl)cc1 | -10.2
COc1cccc(C(=O)Nc2cc(C)ccc2C)c1 | -5.82
CC(C)C[C@H](NC(=O)c1ccc(N2CCN(C)CC2)cc1)C(=O)N[C@@H](CC1CCCN1C(=N)N)C(=O)O (stereo partly shown) | -1.41
C=C(C)C(C)(O)C#CCN(CC)CC (stereo not shown) | -3.79
C/C(=N\c1ccccc1)C1=C(O)CC(C)(C)CC1=O | 2.45
COc1ccccc1N1C(=O)c2ccccc2NC1c1ccncc1 (stereo not shown) | -1.95
CC(C)(C)Nc1nc(Cl)nc(NC(C)(C)C)n1 | -2.51
O=C(c1ccco1)N1CCN(C(=O)c2cc(-c3ccc(F)cc3)no2)CC1 | 1.92
Nc1ncc(Br)cc1S(=O)(=O)NCCC(=O)NC1CCCCCC1 | -4.09
Cc1ccc(C(=O)N2CCN(c3cccc(Cl)c3)CC2)cc1 | 0.526
CN(Cc1ccccc1)S(=O)(=O)c1ccc2ncc(C(=O)N3CCC4(CC3)OCCO4)c(O)c2c1 | -5.64
CCn1c(SCC(O)c2ccccc2)nc2ccccc21 (stereo not shown) | -1.31
C=CCNC(=O)/C(=C\c1ccc(-c2ccc(Cl)cc2)o1)NC(=O)c1ccccc1 | 2.45
Cc1ccc(CNc2cc(C)nc3nncn23)cc1 | -4.39
Cc1c(C(=O)NCc2ccccc2Cl)oc2ccc3c(c12)C(=O)CC(C)(C)O3 | -1.6
Cc1nn(C)c(C)c1/C=C/C(=O)c1ccc(Cl)cc1Cl | 0.00706
Cc1ccc(S(=O)(=O)NCC2CCC(C(=O)N3CCN(Cc4ccccc4)CC3)CC2)cc1 (stereo not shown) | -2.72
N#CC1(Nc2ccccc2Cl)C(=O)Nc2ccccc21 (stereo not shown) | -2.96
CC(C)C[C@H](NC(=O)c1cc(-c2ccccc2Cl)c(-c2ccccc2Cl)s1)C(=O)NCC#N | -0.207
O=[N+]([O-])c1ccccc1C1CC(c2ccccc2)=NN1 (stereo not shown) | 7.66
CC1CCN(S(=O)(=O)c2ccc(F)cc2)CC1 | 1.83

SMILES | % Inhibition @ 10 uM [%]
COc1ccccc1NC(=O)c1cccnc1 | -4.49
O=S(=O)(NCC1CCCO1)c1ccc(-c2cc(C(F)(F)F)no2)s1 (stereo not shown) | -2.31
CC(Cc1cccc(C(F)(F)F)c1)N1CCN(C/C=C/c2ccccc2)CC1 (stereo not shown) | 1.38
COCCNc1nn2c(=O)c3c4c(sc3nc2c2ccccc12)CCCCC4 | 11.5
COc1ccc(CN2CCN(C/C=C/c3ccccc3)CC2)cc1Br | -5.68
CC(C)c1ccc(C(=O)NCc2ccc(S(N)(=O)=O)cc2)cc1 | -2.83
CC(C)CC(C(=O)NCC#N)c1cccc(-c2ccc(S(=O)(=O)N3CCOCC3)cc2)c1 (stereo not shown) | 6.03
Cc1ccc(C(=O)Nc2ccc(S(=O)(=O)Nc3nccs3)cc2)cc1 | -4.86
COc1cccc(CNC(=O)CCn2nc(C)c3c(C)n(-c4ccccc4)nc3c2=O)c1OC | -5.74
COc1ccc(-n2nc3c(c2NC(=O)c2ccc(Br)o2)CS(=O)(=O)C3)cc1 | 11
Cc1ccc(OCCn2cc(/C=C3/C(=O)NC(=O)N(Cc4ccco4)C3=O)c3ccccc32)cc1 | -3.41
Cc1nn(CC(=O)NCc2ccc(OC(C)C)cc2)c(=O)c2c1sc1ccccc12 | 0.39
CC1=C(C(=O)NCc2ccccc2)SCCO1 | -1.75
CCc1ccccc1NC(=O)Cc1ccc(OC)cc1 | -0.0404
COc1ccc2c(c1)-c1nc(NC(=O)c3cccnc3)sc1CC2 | 5.67
CCOc1ccccc1-c1ccc(C(=O)N[C@@H](CC(C)C)C(=O)NCC#N)cc1 | -3.04
O=C(NCCCN1CCOCC1)c1ccc(CS(=O)(=O)c2c(Cl)cccc2Cl)o1 | -11
COc1cc(/C=C2\SC(N)=NC2=O)cc(OC)c1O | -6.06
CC(=O)C1C(=O)C=C(/C=C/c2ccccc2)CC1c1ccccc1 (stereo not shown) | 4.08
NC(=O)C(=O)Nc1ccc(Cl)c(Cl)c1 | 2.94
COC(=O)/C(C#N)=C/c1c(Oc2ccc(Cl)c(C)c2)nc2c(C)cccn2c1=O | 0.315
CN1C(=O)S/C(=C/c2ccccc2OCc2ccc(C(=O)O)cc2)C1=O | 1.1
Cc1ccc(CN2C(=O)N/C(=C/c3ccccc3C)C2=O)cc1 | -0.661
O=C(CNC(=S)N(Cc1ccccc1)Cc1cccnc1)NCc1ccc(F)cc1 | -3.94
COc1ccccc1CNCCc1ccc(OC)c(OC)c1 | -0.641

SMILES | % Inhibition @ 10 uM [%]
CCOc1ccc2c(c1)C(SCC(=O)NCCc1ccc(OC)c(OC)c1)CC1(CCCC1)O2 (stereo not shown) | 1.27
COc1cccc(C2CC(=O)Nc3c2c(O)nc2nc4ccccc4n32)c1OC (stereo not shown) | -5.17
Cc1ccc(NC(=O)Cn2cnc3ccccc3c2=O)cc1C | 12.3
c1ccc(CNc2ncnc3scc(C4COc5ccccc5O4)c23)cc1 (stereo not shown) | 4.19
Cc1nc2c(-c3ccc(F)cc3)c(C)nn2c(C)c1CCC(=O)NCCCN1CCCC1=O | -0.465
CNC(=O)/C(C#N)=C/c1c(F)cccc1Cl | 6.51
CC(C)CC(NC(=O)/C(=C\c1ccco1)NC(=O)c1ccccc1)C(=O)O (stereo not shown) | -2.87
COc1ccc(N(CC(=O)Nc2ccc(Cl)cc2C)S(=O)(=O)c2ccccc2)cc1OC | -7.58
Cc1ccccc1C(=O)N1CCC(Cc2ccccc2)CC1 | 1.35
CC(=O)c1ccc(-n2c(=O)c3ccccc3c3ccccc3c2=O)cc1 | -4.49
COc1ccccc1CNS(=O)(=O)c1ccc(-c2cc(C)no2)s1 | -5.31
CC(C)CC1C(C#N)=C(N)OC2=C1C(=O)CCC2 (stereo not shown) | 1.13
CCOC(=O)c1cnc2cc(N(C)C)ccn2c1=O | 3.48
Cc1nnc(SCC(=O)NCC(C)c2ccccc2)c2nn(-c3ccccc3)c(C)c12 (stereo not shown) | 1.4
Cc1ccc(N2CCN(Cc3ccccn3)CC2)cc1 | 1.38
COc1ccc(OC)c(CNCc2c(C(=O)O)n(Cc3ccc(F)cc3Cl)c3cc(C)ccc23)c1 | -0.717
Cc1cc(OCC(=O)N(Cc2cccc(F)c2)C2CCS(=O)(=O)C2)ccc1Cl (stereo not shown) | -1.35
CN(Cc1ccccc1)C(=O)Cn1ncc2ccsc2c1=O | -10.4
Cc1nn(C)cc1C(=O)NCc1ccccc1 | -6.68
O=S(=O)(O)CCC[n+]1c(/C=C/c2ccc3c(c2)OCO3)sc2ccc(Cl)cc21 | 0.565
CCC(C)Cn1c(CCCO)nc2ccccc21 (stereo not shown) | -2.19
CN(C(=O)c1ccccc1C(=O)O)C1CC(C)(C)NC(C)(C)C1 | -6.43
C=CCSC1=C(C#N)C(c2ccc(Cl)cc2)CC(=O)N1 (stereo not shown) | 2.76
O=C1NC(=S)N(C(=O)c2ccc(F)cc2)/C1=C/c1cccnc1 | 2.7
O=C(Nc1nccs1)C1CCCN(S(=O)(=O)c2ccc3nc(O)ccc3c2)C1 (stereo not shown) | 1.39
